Molecules are shown by their SMILES.

Assay in all cases: whole plant or invertebrate
The subject of assay [1] is Aphis gossypii. The conditions noted are these: in Cucumis sativus, 48 h, read-out: Determination (mortality rate).
Assay [2] deals with Spodptera litura. The conditions noted are these: Brassica rapa, 48 h, read-out: Determination (mortality rate). As to the method:
A Chinese cabbage leaf section having a diameter of 3 cm was immersed in an agent solution prepared by diluting a 10% wettable powder of each compound shown in Table 1 to a concentration of 500 ppm, and it was then subjected to air drying. Thereafter, the Chinese cabbage leaf was placed in a plastic petri dish, and 10 third-instar larvae of Spodptera litura were released therein. Two days after the treatment, the number of deaths was counted, and the mortality rate was then calculated.

Assay [3] concerns Tetranychus urticae female adults. The conditions noted are these: 48 h, read-out: Determination (mortality rate). As to the method: A kidney bean leaf section having a diameter of 3 cm was placed on a wet sponge in a plastic cup. Thereafter, ten female adults of Tetranychus urticae were released into the plastic cup. 0.4 ml each of an agent solution prepared by diluting a 10% wettable powder of each compound shown in Table 1 to a concentration of 250 ppm was sprayed thereto. Two days later, the number of deaths was counted, and the mortality rate was then calculated.

For the molecule `CC(CC#Cc1ccc(F)cc1)Nc1ncnc2ccccc12` (stereo not drawn) [compound 271], the mortality at 250 ppm in assay [1] and in assay [3] was > 95% each time. Besides, the mortality – broadly, the percentage killed – at 500 ppm in assay [2] is 60 to 80%.
With `CC(CC#Cc1ccc(Cl)cc1)Nc1ncnc2ccccc12` (stereo not drawn) [compound 273], the mortality at 250 ppm in assay [1] and in assay [3] was > 95% in each case. In assay [2], the mortality at 500 ppm was in the range of 60 to 80%.
`CC(CC#Cc1ccc(S(F)(F)(F)(F)F)cc1)Nc1ncnc2ccccc12` (stereo not drawn) [compound 277]: the mortality at 250 ppm in assay [1] and in assay [3] was > 95% each time. Also, the mortality at 500 ppm in assay [2] is > 95%.
Take `COCc1ccccc1C#CCC(C)Nc1ncnc2ccccc12` (stereo not drawn) [compound 278]: the mortality at 250 ppm in assay [1] and in assay [3] was > 95% each time. The mortality at 500 ppm in assay [2] was > 95%.
Turning to `CC(CC#Cc1ccc(C(F)(F)F)cc1Cl)Nc1ncnc2ccccc12` (stereo not drawn) [compound 282], the mortality at 250 ppm in assay [1] and in assay [3] was > 95% throughout. Moreover, the mortality at 500 ppm in assay [2] lay in the range of 80 to 95%.
For the molecule `CC(CC#Cc1ccc(Cl)cc1C(F)(F)F)Nc1ncnc2ccccc12` (stereo not drawn) [compound 285], the mortality at 250 ppm in assay [1] and in assay [3] was > 95% in each case. For the same molecule, the mortality at 500 ppm in assay [2] is > 95%.
Turning to `CC(CC#Cc1ccc(F)cc1C(F)(F)F)Nc1ncnc2ccccc12` (stereo not drawn) [compound 286], the mortality at 250 ppm in assay [1] and in assay [3] was > 95% throughout. Besides, the mortality at 500 ppm in assay [2] was > 95%.
Regarding `CC(CC#Cc1ccc(C(F)(F)F)cc1F)Nc1ncnc2ccccc12` (stereo not drawn) [compound 288], the mortality at 250 ppm in assay [1] and in assay [3] was > 95% throughout. For the same molecule, the mortality at 500 ppm in assay [2] is > 95%.
Regarding `CC(CC#Cc1ccc(C(C)C)cc1C(F)(F)F)Nc1ncnc2ccccc12` (stereo not drawn) [compound 289], the mortality at 250 ppm in assay [1] and in assay [3] was > 95% each time. Besides, in assay [2], the mortality at 500 ppm is > 95%.
Take `CC(CC#Cc1ccccc1S(C)(=O)=O)Nc1ncnc2ccccc12` (stereo not drawn) [compound 290]: the mortality at 250 ppm in assay [1] and in assay [3] was > 95% in each case. Further, the mortality at 500 ppm in assay [2] was 60 to 80%.
Consider `C=CC(CC#Cc1ccccc1)Nc1ncnc2ccccc12` (stereo not drawn) [compound 296], for which the mortality at 250 ppm in assay [1] and in assay [3] was > 95% in each case. In assay [2], the mortality at 500 ppm lay within 60 to 80%.
Consider `C=CC(CC#Cc1ccc(F)cc1)Nc1ncnc2ccccc12` (stereo not drawn) [compound 297], for which the mortality at 250 ppm in assay [1] and in assay [3] was > 95% each time. Further, the mortality at 500 ppm in assay [2] lay in the range of 80 to 95%.
Take `COCc1ccccc1C#CCCNc1ncnc2ccc([N+](=O)[O-])cc12` [compound 331]: the mortality at 250 ppm in assay [1] and in assay [3] was > 95% throughout. Further, the mortality at 500 ppm in assay [2] is > 95%.
With `COCc1ccccc1C#CCCNc1ncnc2ccc(-c3cccnc3)cc12` [compound 337], the mortality at 250 ppm in assay [1] and in assay [3] was > 95% each time. In addition, the mortality at 500 ppm in assay [2] was > 95%.
In the case of `CC(CC#Cc1ccc(Cl)cc1C(F)(F)F)Nc1ncnc2cc(F)ccc12` (stereo not drawn) [compound 344], the mortality at 250 ppm in assay [1] and in assay [3] was > 95% throughout. Moreover, the mortality at 500 ppm in assay [2] is > 95%.
Consider `CC(CC#Cc1ccc(Cl)cc1C(F)(F)F)Nc1ncnc2ccc(F)cc12` (stereo not drawn) [compound 345], for which the mortality at 250 ppm in assay [1] and in assay [3] was > 95% throughout. Further, in assay [2], the mortality at 500 ppm was > 95%.
On to `CC(CC#Cc1ccc(F)cc1C(F)(F)F)Nc1ncnc2cc(F)ccc12` (stereo not drawn) [compound 347], for which the mortality at 250 ppm in assay [1] and in assay [3] was > 95% throughout. For the same molecule, in assay [2], the mortality at 500 ppm was > 95%.
With `CC(CC#Cc1ccc(Cl)cc1C(F)(F)F)Nc1ncnc2c(F)cccc12` (stereo not drawn) [compound 348], the mortality at 250 ppm was > 95% in assay [1] and 80 to 95% in assay [3]. In assay [2], the mortality at 500 ppm was > 95%.
With `COc1cccc2c(NC(C)CC#Cc3ccc(Cl)cc3C(F)(F)F)ncnc12` (stereo not drawn) [compound 352], the mortality at 250 ppm in assay [1] and in assay [3] was > 95% in each case. Also, in assay [2], the mortality at 500 ppm was > 95%.
With `COc1cccc2c(NC(C)CC#Cc3ccc(F)cc3C(F)(F)F)ncnc12` (stereo not drawn) [compound 353], the mortality at 250 ppm in assay [1] and in assay [3] was > 95% each time. The mortality at 500 ppm in assay [2] was > 95%.
Regarding `Fc1cc2ncnc(NCCC#Cc3ccc(Cl)cc3C(F)(F)F)c2cc1F` [compound 355], the mortality at 250 ppm in assay [1] and in assay [3] was > 95% throughout. The mortality at 500 ppm in assay [2] is > 95%.
`Cc1ncnc(NCCC#Cc2ccc(Cl)cc2C(F)(F)F)c1Cl` [compound 360]: the mortality at 250 ppm was > 95% in assay [1] and 60 to 80% in assay [3]. Besides, the mortality at 500 ppm in assay [2] was in the range of 60 to 80%.
Take `CC(CC#Cc1ccc(Cl)cc1C(F)(F)F)Nc1ncnc(C(C)F)c1Cl` (stereo not drawn) [compound 382]: the mortality at 250 ppm in assay [1] and in assay [3] was > 95% in each case. Further, in assay [2], the mortality at 500 ppm was > 95%.
`CC(CC#Cc1ccc(Cl)cc1C(F)(F)F)Nc1ncnc2ncccc12` (stereo not drawn) [compound 384]: the mortality at 250 ppm in assay [1] and in assay [3] was > 95% throughout. In assay [2], the mortality at 500 ppm lay in the range of 80 to 95%.
For the molecule `Cc1ncnc(NC(C)CC#Cc2ccc(Cl)cc2C(F)(F)F)c1Br` (stereo not drawn) [compound 387], the mortality at 250 ppm in assay [1] and in assay [3] was > 95% throughout. In addition, in assay [2], the mortality at 500 ppm was 80 to 95%.

(Values after patent US8586505B2 (SDS Biotech K. K., priority 2009, dated 2013).)
